Measured values: publication PMC12691602, “Cryo-EM structure of the QseG-QseE complex reveals an accessory protein-driven two-component system activation mechanism” (mBio, 2025)
These are yes or no findings as the source states them, for the method shown. Some binding calls cover weakened binding; strength is not graded here.

Columns and labels:
[1] = target: full-length QseE (QseEfl), C-terminal Strep II tag (Salmonella enterica serovar Typhimurium SL1344); assay: SEC; Superdex 200 10/300 GL; QseE and QseG alone or mixed at 1:2 molar ratio (QseE to QseG), incubated at 37°C for 30 min; column buffer as in QseE purification; fractions on SDS-PAGE; both purified
[2] = target: strep-tagged QseE_(38-171) (Salmonella enterica serovar Typhimurium SL1344); assay: pull-down; Strep-tagged QseE (20 µM) and QseG (40 µM) in 20 mM Tris-HCl pH 8.0, 150 mM NaCl, 0.002% LMNG, 0.0002% CHS; Strep-Tactin beads, 25°C, 30 min; eluted with desthiobiotin; SDS-PAGE, Coomassie; both purified
[3] = target: full-length QseE (QseEfl), C-terminal Strep II tag (Salmonella enterica serovar Typhimurium SL1344); assay: as above
[4] = target: full-length QseE (QseEfl), C-terminal Strep II tag (Salmonella enterica serovar Typhimurium SL1344); assay: cryo-EM structure; QseG_(37-221) and QseE mixed at 3:1 molar ratio, complex separated by SEC; 3.9 Å map with C2 symmetry imposed; model limited to QseG 58-220 and QseE 34-173; both purified

Row | Substance | binding [1] | binding [2] | binding [3] | binding [4]
1 | QseG (mature lipoprotein, QseG_(37-end)) (from UniProt A0A4Z0KM88 37-254) | binds | no binding (tested: QseG 40 µM, Strep-tagged QseE 20 µM) | binds | –
2 | QseG_(37-181) (from UniProt A0A4Z0KM88 37-181) (domain or fragment) | – | – | no binding (tested: QseG 40 µM, Strep-tagged QseE 20 µM) | –
3 | QseG_(37-193) (from UniProt A0A4Z0KM88 37-193) (domain or fragment) | – | – | no binding (tested: QseG 40 µM, Strep-tagged QseE 20 µM) | –
4 | QseG_(37-214) (from UniProt A0A4Z0KM88 37-214) (domain or fragment) | – | – | no binding (tested: QseG 40 µM, Strep-tagged QseE 20 µM) | –
5 | QseG_(37-221) (from UniProt A0A4Z0KM88 37-221) (domain or fragment) | – | – | binds | binds
